Experimental data as given in PubChem BioAssay AID686978 (National Center for Advancing Translational Sciences (NCATS), 2013).
The campaign covered roughly 420,000 compounds. About 64,000 (15%) were called active. The inconclusive results got no clear call from the source; some entries with a clear call stand among them for comparison. Calls come from the whole dose curve; as a rule, active = well fitted inhibition curve with a large enough effect; inconclusive = small, poorly fitted or top-dose-only effect; inactive = flat fitted curve, though single readings scatter. No potency is given beside an inconclusive call; the fits are too rough.

Test: qHTS for Inhibitors of human tyrosyl-DNA phosphodiesterase 1 (TDP1): qHTS in cells in absence of CPT; note: nearly all actives have a fitted effect of over 55% in size
Settings: DT40 Tdp1-/- hTDP1 cells, no CPT, ATP luminescence, 48 h; activity change, negative = growth inhibition: at 46.2 µM (top of the series) unless noted
How it was run: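 No-CPT arm: Tdp1-/-;hTDP1 DT40 cells (400/well) plus compounds, incubated ≥48 hr at 37 °C. Readout CellTiter-Glo luminescence.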
% is set by controls: 0 for no effect and ±100 for the full control effect; potency is the fitted concentration of half-maximal effect; tags give direction and shape of the fitted curve.

Structure (SMILES)	Potency	activity change, negative = growth inhibition
CC(C)N(C(=O)Nc1ccc2nsnc2c1)C(C)C	inconclusive [inhibitor, single point]	
CCC(C(=O)NC(C)(C)C)n1c(-c2ccc3c(c2)OCO3)nc2ccccc21 (stereo unspecified)	inconclusive [inhibitor, single point]	
CCCCCCCCSc1nnc(CSc2nc3nc(C)cc(C)n3n2)o1	inconclusive [inhibitor, single point]	
CCCn1c(SCC(=O)N2CCOCC2)nnc1-c1ccncc1		inactive: 2.77%
CNc1cncc(-c2cccc(NS(C)(=O)=O)c2)n1	inconclusive [inhibitor, single point]	
O=S(=O)(c1ccc(NC(=S)NC2CCCC2)cc1)N1CCCC1	inconclusive [inhibitor, single point]	
CCC(C(=O)Nc1cc(-c2nc3cccnc3s2)ccc1C)c1ccccc1 (stereo unspecified)	active: 20.6 µM	
COc1ccc(CCNC(=O)CCN2C(=O)[C@@H]3Cc4ccccc4CN3C2=O)cc1OC		inactive: -41.1%
Cc1c(C(=O)NC2CCCC2)sc2ncnc(NCCN(C)C)c12		inactive: 6.51%
Cc1ccc(Cl)cc1NC(=O)Cn1c(=O)c2ccccc2n2nncc12		inactive: -7.63%
CCOc1ccccc1C1CC(=O)Oc2c1c(=O)n(C)c1ccccc21 (stereo unspecified)		inactive: 17.3%
Clc1ccc(N=C2SCC3CCCCN23)cc1 (stereo unspecified)		inactive: -25.7%
CCn1c(SCC(=O)NCCc2ccccc2)nc2c(c1=O)SC(C)C2 (stereo unspecified)	inconclusive [inhibitor, single point]	
Cc1ccc(Cc2c(-c3ccc(F)cc3)nc3c(C)cc(Br)cn23)cc1	active: 16.4 µM	
CCOC(=O)c1c(N)sc2c1CCN(CCc1ccccc1)C2	inconclusive [inhibitor, single point]	
COC(=O)c1c(NC(C)=O)sc(C(=O)Nc2ccccc2OC)c1C	inconclusive [inhibitor, partial curve]	
CCOc1ccc(OCC)c(S(=O)(=O)n2ccnc2C)c1		inactive: -11.9%
CCOC(=O)c1c(-c2ccccc2)csc1NC(=O)c1cc(-c2ccc(Cl)cc2)on1		inactive: -9.71%
Cc1ccc(S(=O)(=O)NCCc2ccncc2)cc1C		inactive: -3.82%
CC1CC1C(=O)N1CCN(S(=O)(=O)c2cccc(F)c2)CC1 (stereo unspecified)		inactive: 2.42%
COc1cccc(N=c2oc3c(C)ncc(CO)c3cc2C(N)=O)c1		inactive: -18.9%
CC1=C(C(=O)Nc2ccc(C)cc2C)C(c2ccccc2)n2ncc(C(=O)Nc3ccccc3)c2N1 (stereo unspecified)	inconclusive [inhibitor, single point]	
CCOC(=O)C1=CCN(S(=O)(=O)c2ccc(C)cc2)C1c1ccccc1 (stereo unspecified)	inconclusive [inhibitor, single point]	
CCN(c1ccccc1)S(=O)(=O)c1cccc(C(=O)OCC(=O)Nc2ccc(NC(C)=O)cc2)c1		inactive: -14.6%

Structure (SMILES)	Potency	activity change, negative = growth inhibition
COc1cc(OC)cc(C(=O)N2CCC(C(=O)Nc3ccc4c(c3)OCCO4)CC2)c1	inconclusive [inhibitor, single point]	
Cc1c(O)ccc(-c2[nH]ncc2-c2nc3ccccc3s2)c1O	inconclusive [inhibitor, single point]	
CCCN(CC(=O)Nc1ccc(F)c(F)c1F)C(=O)Cc1ccc(OC)c(S(=O)(=O)N2CCOCC2)c1	inconclusive [inhibitor, single point]	
Cc1ccc(S(=O)(=O)N2CCOCC2)cc1C(=O)NC1CCCC(C)C1C (stereo unspecified)	inconclusive [inhibitor, single point]	
CCOC(=O)CSc1nc2ccc(NC(=O)c3ccccc3F)cc2s1		inactive: -8.66%
Cc1occc1-c1nnc(SCC(=O)NC(C)(C)C)n1C(C)c1ccccc1 (stereo unspecified)	inconclusive [inhibitor, single point]	
O=C(NCc1cccnc1)c1cccc(S(=O)(=O)N2CCCCC2)c1	inconclusive [inhibitor, partial curve, poor fit]	
COc1ccc(CCC(=O)Nc2ccc(OC)c(S(=O)(=O)N3CCCCC3)c2)cc1OC	inconclusive [inhibitor, single point]	
COc1cc(OC)cc(C2=Cc3ccc(OC)cc3C(CC(C)=O)N2c2ccc(-c3cncnc3)cc2)c1 (stereo unspecified)	inconclusive [inhibitor, partial curve]	
COCCNC(=O)C1Cc2cc(S(=O)(=O)N3CCCC3)ccc2N1C(C)=O (stereo unspecified)		inactive: 12%
CCCOc1ccc(/C=C2/C(=O)ON=C2C)cc1OCC	inconclusive [inhibitor, single point]	
CCC(C)Sc1nc2c(c(=O)[nH]c(=O)n2C)n1CCc1ccccc1 (stereo unspecified)		inconclusive: -33.3% [inhibitor]
COc1cccc(C2=NOC(C(=O)NCc3ccccc3)C2)c1 (stereo unspecified)	active: 4.61 µM	
COC(=O)c1ccc2c(=O)n(CCCCCC(=O)N3CCN(c4ccc(OC)cc4)CC3)c(=O)[nH]c2c1	inconclusive [inhibitor, single point]	
Cc1ccc(NC(=O)[C@H](Cc2ccccc2)NC(=O)CC[C@H]2O[C@@H](n3ccc(=O)[nH]c3=O)[C@H](O)[C@@H]2O)cc1C		inactive: 3.83%
COc1cccc(N(C(=O)c2nc3nccc(C)n3n2)c2nc3ccccc3s2)c1	inconclusive [inhibitor, single point]	
Cc1ccc(NC(=O)C2CCCN(S(=O)(=O)c3cccc4cccnc34)C2)c(C)c1 (stereo unspecified)	inconclusive [inhibitor, single point]	
COC(=O)C1=C(N)N(c2ccccc2C(F)(F)F)C2=C(C(=O)CCC2)C1c1ccc2c(c1)OCO2 (stereo unspecified)	inconclusive [inhibitor, single point]	
Cc1ccc(OCc2ccc(C(=O)Nc3ccc(S(N)(=O)=O)cc3)o2)cc1	inconclusive [inhibitor, single point]	
O=S(=O)(Nc1ccccc1)c1ccc(S(=O)(=O)N2CCCC2)cc1		inactive: -15.7%
COc1ccc(NC(=O)CN2CCCN(S(=O)(=O)c3ccc(F)cc3)CC2)cc1		inactive: -23.2%
Cc1ccc(CC2SC(=Nc3ccccc3)N(c3ccccc3)C2=O)cc1 (stereo unspecified)		inactive: -24.6%
CCOc1ccc(CNC(=O)c2ccc(Sc3ccc(Cl)cc3)c(NC(C)=O)c2)cc1OC	active: 20.6 µM	
O=C1CN(C(=O)c2ccc(Cl)c(S(=O)(=O)N3CCc4ccccc43)c2)c2ccccc2N1	active: 20.6 µM	

Structure (SMILES)	Potency	activity change, negative = growth inhibition
CC(=O)Nc1cc(C(=O)NCc2ccco2)ccc1Sc1ccc(Cl)cc1	inconclusive [inhibitor, partial curve]	
COc1ccc(NC(=O)c2ccc(NC(=O)CSc3nc(N)cc(=O)[nH]3)cc2)cc1	inconclusive [inhibitor, single point]	
O=C(Nc1ccccc1Cl)c1ccccc1S(=O)(=O)c1ccccc1[N+](=O)[O-]		inactive: -2.25%
Cc1ccc(NC(=O)c2cccs2)cc1S(=O)(=O)N(C)C	inconclusive [inhibitor, partial curve]	
OC(c1ccccc1)c1nc(-c2cnc3ccccc3c2)cs1 (stereo unspecified)	inconclusive [inhibitor, single point]	
CCS(=O)(=O)c1nc(S(=O)(=O)c2ccc(Cl)cc2)c(NCc2ccccc2Cl)s1	inconclusive [inhibitor, single point]	
Oc1ccc(/C=N/Nc2nc(N3CCCCCC3)nc(N3CCCCCC3)n2)c(O)c1	inconclusive [inhibitor, single point]	
COC(=O)c1ccc(-c2csc(NC(=O)c3ccc(S(=O)(=O)N4CCc5ccccc5C4)cc3)n2)cc1	active: 5.8 µM	
CCN1CCN(C(CNS(=O)(=O)c2ccc(F)cc2)c2cccnc2)CC1 (stereo unspecified)		inactive: 10%
O=C(c1ccco1)N1CCN(C(=O)C2CCN(S(=O)(=O)Cc3ccccc3)CC2)CC1		inactive: -11.1%
Cn1nc(C(=O)NCc2ccc(Cl)cc2)c2c1-c1ccccc1SC2	inconclusive [inhibitor, single point]	
Cc1cc(-n2c(SCC(=O)Nc3ccc(F)c(F)c3)nc3n[nH]c(C)c3c2=N)ccc1Cl	active: 1.46 µM	
CC(=O)Nc1ccc(N(C(=O)c2ccco2)C(C(=O)NC2CCCCC2)c2ccccc2)cc1 (stereo unspecified)	inconclusive [inhibitor, partial curve]	
COc1ccc2c(c1)OC/C(=C\c1ccc(OC)c(O)c1)C2=O	active: 1.03 µM	
CCCCc1nc2cc(C(=O)N3CCN(c4nc(C)cnc4C)CC3)ccc2o1	inconclusive [inhibitor, single point]	
CCOC(=O)C1CCN(C(=O)COC(=O)c2c(C)c(CC)nc3ccccc23)CC1	inconclusive [inhibitor, single point]	
CC(OC(=O)c1ccco1)C(=O)NCc1ccc2c(c1)OCO2 (stereo unspecified)		inactive: 4.47%
CCCCC(CC)CNC(=O)c1ccc2c(=O)n(Cc3ccc(OC)cc3)c(=O)[nH]c2c1 (stereo unspecified)	inconclusive [inhibitor, partial curve]	
COCOc1cccc(CN2CCC2(C)C(=O)Nc2cc(OC)ccc2OC)c1 (stereo unspecified)	inconclusive [inhibitor, single point]	
COc1cccc2c1-c1c(O)cccc1C2=O		inactive: 4.48%
Cc1ccccc1NC(=S)/C(=C(\[O-])c1cc(C)n(Cc2ccccc2Cl)c1C)[n+]1ccccc1	inconclusive [inhibitor, single point]	
COc1ccc(-c2nc(-c3cccc(C(F)(F)F)c3)no2)cc1OC	inconclusive [inhibitor, partial curve]	
O=C(Nc1nccs1)c1ccc(-c2cccc([N+](=O)[O-])c2)o1	inconclusive [inhibitor, single point]	
